According to PubChem BioAssay AID1794842 (National Center for Advancing Translational Sciences (NCATS), 2023):
Screen size: about 2,800 compounds; fewer than 10 were called active. Calls follow the shape of the dose curve; as a rule, active = well fitted curve in the direction sought with a large enough effect; inconclusive = small, poorly fitted or top-dose-only effect, or another doubt; inactive = no such curve, though single readings can be large or run the other way. The list shows a part of the results.

What follows are compounds tested against Metallo-beta-lactamase type 2 (Klebsiella pneumoniae) (UniProt C7C422) (assay: qHTS to identify inhibitors of the New Delhi Metallo-beta-lactamase (NDM): Meropenem screen against the machine-based learning selections.). Details: Purified NDM-1, meropenem hydrolysis, absorbance 300 nm; at 57.5 µM (top of the series) unless noted.
Procedure, shortened: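 Hydrolysis by 2 nM NDM-1 was followed by absorbance after >30 min compound preincubation in HEPES pH 7.0 buffer with 1 uM Zn2SO4. For nitrocefin (16.7 uM, 15 min, 485 nm) and meropenem (50 uM, 30 min, 300 nm), each substrate ran on separate plates.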
Also: % of control where 0% means no effect.

Chain of UniProt C7C422 (C7C422 whole entry, looked up): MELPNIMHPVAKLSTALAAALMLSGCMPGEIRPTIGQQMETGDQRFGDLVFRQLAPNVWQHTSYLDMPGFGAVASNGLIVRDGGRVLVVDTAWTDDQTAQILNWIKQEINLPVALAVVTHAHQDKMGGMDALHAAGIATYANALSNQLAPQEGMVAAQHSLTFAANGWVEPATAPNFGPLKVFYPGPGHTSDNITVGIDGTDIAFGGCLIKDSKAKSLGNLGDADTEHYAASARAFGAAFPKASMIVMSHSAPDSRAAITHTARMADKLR

Compound | activity change, negative = inhibition
Cc1nc(-c2ccccc2Br)cc([C@H]2CN3CC[C@H]2C[C@@H]3CNC(=O)c2ccc(N(C)C)cc2)n1 | inactive: 1.29% [at 38.4 µM]
CCCS(=O)(=O)NC[C@H]1C[C@@H]2CCN1C[C@@H]2CC | inactive: 5.83% [at 76.7 µM]
CCCc1nc(C)cc(N2CCC3(CC2)CNC(C(=O)O)C3)n1 (stereo not given) | inactive: 55.3% [at 38.4 µM]
Cc1nc(-c2ccccc2Br)cc([C@H]2CN3CC[C@H]2C[C@@H]3CNC(=O)Nc2ccccc2)n1 | inactive: 13.1% [at 38.4 µM]
CNCc1cn(C[C@H]2CC3CCN2C[C@@H]3C(=O)Nc2ccccc2)nn1 (stereo not given in full) | inactive: 0.253%
CN(C[C@H]1CN2CC[C@H]1C[C@@H]2CNS(=O)(=O)c1cccs1)c1ccccc1 | inactive: 25.1%
COCC(=O)NC[C@H]1C[C@@H]2CCN1C[C@@H]2c1cc(-c2cccs2)nn1C | inactive: 2.61%
CCNC(=O)NC[C@H]1C[C@@H]2CCN1C[C@@H]2c1cc(-c2ccccc2)nn1C | inactive: 0.788%
O=C(O)C1CC2(CCN(C(=O)CCc3ccncc3)CC2)CN1 (stereo not given) | inactive: 54.5% [at 38.4 µM]
CC(C)NC(=O)NC[C@H]1C[C@@H]2CCN1C[C@@H]2c1cc(-c2cccs2)nn1C | inactive: 1.79%
Cn1nc(-c2ccc(F)cc2)cc1[C@H]1CN2CC[C@H]1C[C@@H]2CNC(=O)COc1ccccc1 | inactive: 0.39% [at 38.4 µM]
C=C[C@H]1CN2CC[C@H]1C[C@@H]2CNC(=O)c1ccc(C#N)cc1 | inactive: 13.2%
COCC(=O)NC[C@H]1C[C@@H]2CCN1C[C@@H]2c1cc(-c2ccc(OC)cc2)nn1C | inactive: 0.133%
CC(C)(C)c1cn(C[C@H]2CC3CCN2C[C@@H]3C(=O)NCc2ccccc2)nn1 (stereo not given in full) | inactive: -1.06%
COc1ccc(NC(=O)OC[C@H]2C[C@@H]3CCN2C[C@@H]3c2cc(-c3ccccc3OC)nn2C)cc1 | inactive: 3.57% [at 38.4 µM]
COc1cc2c(cc1Oc1ccccc1)NC(=O)C21CCN(Cc2cccc(O)c2)CC1 | inactive: 1.51%
CC(=O)NCCNC(=O)[C@H]1CN2CCC1C[C@@H]2Cn1cc(CSc2ccccc2)nn1 (stereo not given in full) | inactive: 2.79% [at 38.4 µM]
Cn1nc(C(=O)N[C@@H]2COCC[C@@H]2OCc2cscn2)c2ccccc21 | inactive: 9.98% [at 38.4 µM]
Cc1ccc2c(n1)N(C)[C@H](CO)CCN(C1CCCC1)C2 | inactive: 2.61% [at 76.7 µM]
CCCc1cnc(C)nc1N1CCC2(CC1)CNC(C(=O)O)C2 (stereo not given) | inactive: 50.2% [at 38.4 µM]
CC(=O)c1ccc(NC(=O)OC[C@H]2C[C@@H]3CCN2C[C@@H]3c2cc(-c3cccs3)nn2C)cc1 | inactive: 1.41% [at 38.4 µM]
C#CCN(C)C[C@H]1CN2CC[C@H]1C[C@@H]2CNC(=O)NC(C)C | inactive: -0.384%
Cc1ccc(S(=O)(=O)NC[C@H]2C[C@@H]3CCN2C[C@@H]3CN2CCN(c3ncccn3)CC2)cc1 | inactive: -2.68% [at 38.4 µM]

Compound | activity change, negative = inhibition
Cc1nc(C2CCCC2)cc([C@H]2CN3CC[C@H]2C[C@@H]3CNC(=O)CCCC(=O)O)n1 | inactive: 1.55%
COc1ccc(-c2ccc(=O)n3c2[C@@H]2C[C@@H](CN(C(=O)C(C)(C)C)C2)C3)cc1 | inactive: 4.23%
O=C(O)CSCC(=O)N1C[C@@H]2C[C@H](C1)c1c(-c3ccccc3F)ccc(=O)n1C2 | inactive: 5.31%
COc1ccc(-c2cc([C@H]3CN4CC[C@H]3C[C@@H]4CNC(=O)C(C)(C)C)nc(C)n2)cc1OC | inactive: 0.174% [at 38.4 µM]
COc1ccc(CN(Cc2ccc(OC)cc2)C[C@H]2C[C@@H]3CCN2C[C@@H]3c2cc(C3CCCC3)nn2C)cc1 | inactive: 26.3% [at 38.4 µM]
CC(C)(C)c1ccc(-c2cn(C[C@H]3CC4CCN3C[C@@H]4C(=O)NCc3ccccc3)nn2)cc1 (stereo not given in full) | inactive: -2.36% [at 38.4 µM]
CN(C)C(=O)[C@H]1CN2CCC1C[C@@H]2Cn1cc(CSc2ccccc2)nn1 (stereo not given in full) | inactive: 1.37%
C#C[C@H]1CN2CC[C@H]1C[C@@H]2CNS(=O)(=O)c1ccc(Cl)cc1 | inactive: 0.0244%
CC[C@H]1CN2CC[C@H]1C[C@@H]2CNCc1ccc(OC)cc1 | inactive: -1.9% [at 76.7 µM]
Cc1nc(-c2ccco2)cc([C@H]2CN3CC[C@H]2C[C@@H]3CNC(=O)Nc2ccccc2)n1 | inactive: 2.21%
CSCC(=O)N1C[C@@H]2C[C@H](C1)c1ccc(-c3ccccc3CN(C)C)c(=O)n1C2 | inactive: 9.05%
COc1ccc(C(=O)N2[C@H]3CC[C@@H]2c2cnc(C)nc2C3)c(OC)c1 | inactive: -0.0381% [at 38.4 µM]
CNCc1cn(C[C@H]2CC3CCN2C[C@@H]3C(=O)NCc2ccccc2)nn1 (stereo not given in full) | inactive: -1.52%
O=C(C1CCCCC1)N1C[C@@H]2C[C@H](C1)c1c(-c3ccc(Cl)cc3)ccc(=O)n1C2 | inactive: 3.01%
CC(=O)Nc1ccc(S(=O)(=O)NC[C@H]2C[C@@H]3CCN2C[C@@H]3c2cc(-c3ccccc3)nn2C)cc1 | inactive: -0.35% [at 38.4 µM]
COCC1CN(C)CC12CCN(Cc1cccc(OC)n1)CC2 (stereo not given) | inactive: 0.219% [at 38.4 µM]
CN(C)C(=O)[C@H]1CN2CCC1C[C@@H]2Cn1cc(-c2cccc(N)c2)nn1 (stereo not given in full) | inactive: -4.68%
CC(=O)Nc1ccc(S(=O)(=O)NC[C@H]2C[C@@H]3CCN2C[C@@H]3c2cc(-c3ccco3)nc(C)n2)cc1 | inactive: 9.45% [at 38.4 µM]
COc1ccccc1CNC(=O)[C@H]1CN2CC[C@H]1C[C@@H]2Cn1cc(-c2ccccn2)nn1 | inactive: 0.922%
CC1CCN(C[C@H]2CN3CC[C@H]2C[C@@H]3CNC(=O)Nc2ccccc2)CC1 | inactive: 0.427%
CC[C@H]1CN2CC[C@H]1C[C@@H]2CNCc1ccc2c(c1)OCO2 | inactive: -2.34%
CC[C@H]1CN2CC[C@H]1C[C@@H]2CNC(=O)c1ccc(N(C)C)cc1 | inactive: 13.9%
